# From patent US11773183B2, “MUC16 monoclonal antibody and uses thereof” (QUEST PHARMATECH INC., priority 2018, dated 2023)
# T1: MUC16 TR1.2 (Homo sapiens, UniProt Q8WXI7)
# T1 construct: made in house; host or cells: CHO cells (wild type)
# T1 sequence (Q8WXI7 12665-12858): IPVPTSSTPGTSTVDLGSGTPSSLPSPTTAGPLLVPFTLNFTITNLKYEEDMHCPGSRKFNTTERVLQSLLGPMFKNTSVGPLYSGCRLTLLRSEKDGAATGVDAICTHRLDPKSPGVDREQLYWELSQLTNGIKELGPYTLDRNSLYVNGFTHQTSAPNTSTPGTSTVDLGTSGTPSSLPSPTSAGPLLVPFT
# How the values were obtained:
# [1] = system: T3M4 wildtype (WT) cells; assay: Live/Dead cell cytotoxicity assay, T3M4 wildtype cells; format: cell-based, human; details: 24 h, antibody 5 μg/ml, where combined Sapitinib 5.4 μM, LY294002 11.3 μM
# Method: (§1) Materials and Methods. T3M4 wildtype (WT) and COSMC deleted (SimpleCells, SC) were treated with equal amounts of mAR 9.6 (5 μg/ml) and POCmAb (5 μg/ml) or with isotype matched (either mouse or human) control IgG antibody for 24 h. For the comparison of effect of antibodies in inducing cell death, T3M4 WT cells were treated with Sapitinib (an ErbB receptor tyrosine kinase inhibitor, 5.4 μM) and LY294002 (PI3K/Akt inhibitor, 11.3 μM) alone or in combination with mAR9.6 (5 μg/ml) and POCmAb (5 μg/ml) for 24 h. The cells were washed well with cell-culture grade PBS. 20 μl ethidium homodimer-1 (EthD-1, 2 mM) was dissolved in 10 ml PBS. To this solution, 5 μl of calcein acetoxymethyl ester (calcein-AM, 4 mM) was added. 150 μl of this combined reagent was added to the cells grown on coverslip and incubated for 30-45 minutes. The numbers of live and dead cells were detected with Zeiss LSM 710™ confocal laser scanning microscope (Carl Zeiss, Inc., Thornwood, NY, USA) at Confocal Laser Scanning Fluorescence Microscope Core Facility, UNMC. The ratio of dead cells to total cells was calculated for quantitative comparisons. Unpaired Student's t-test was performed to calculate the statistical significance between the antibodies treated T3M4 WT and T3M4 SC cells (n=4) (p<0.05 considered statistically significant). […]
# [2] = target: T1, MUC16 TR1.2; assay: Binding specificity against MUC16 TR1.2 purified from CHO wild-type cells treated with glycosidases; details: MUC16 TR1.2 from CHO wild-type cells
# [3] = system: T3M4 COSMC deleted (SimpleCells, SC) cells; assay: Live/Dead cell cytotoxicity assay, COSMC deleted T3M4 SimpleCells; format: cell-based, human; details: 24 h, antibody 5 μg/ml
# Method: as §1
# [4] = system: MUC16; assay: Binding specificity against different pancreatic cancer cells; design: species or system human; details: FIG. 2A, compared to mAR9.6 (FIG. 2B)
# [5] = target: T2, MUC16 (Homo sapiens, UniProt Q8WXI7); assay: Binding specificity against T3M4 cells treated with glycosidases
# T2 construct: against human pancreatic cancer cells (T3M4) that are treated with Sialidase, O-glycanase and N-glycanase enzymes; endogenous in cells; host or cells: T3M4
# Method: Now referring to FIG. 2. The binding specificity of humanized version of the anti-MUC16 TR1.2A, namely (POCmAb) against various pancreatic cancer cells is tested. […] Next, the binding specificity of murine mAR9.6 and humanized POCmAb anti-MUC16 antibodies against human pancreatic cancer cells (T3M4) that are treated with Sialidase, O-glycanase and N-glycanase enzymes is tested. […] Next, the binding specificity of murine mAR9.6 and humanized POCmAb anti-MUC16 antibodies against MUC16 TR1.2 purified from CHO wild-type cells, which was treated with different glycosidases such as sialidase, O-glycanase and N-glycanase was tested. […] However, O-glycans and sialic acid groups on the MUC16 either blocks or mask the epitopes for anti-MUC16 antibody reactivity.
# [6] = system: MUC16; assay: Binding specificity to PDAC patients ascites fluid samples; design: species or system human; details: 6/16 samples, FIG. 5A
molecule,measurement,setting,value
"POCmAb: Recombinant anti-MUC16 mAb: VH SEQ ID NO:15 and VL SEQ ID NO:16 with human IgG1 heavy and human kappa constant domains (antibody, V domains shown, human IgG1 and kappa constant domains; Variable heavy domain; Variable light domain) VH: EVQLVESGGGLVQPGGSRKLSCAASGFTFSTFGMHWVRQAPEKGLEWVAYISSGSSTIYYGDTLQGRFIISRDNPKNTLFLQMTSLRSEDTAMYYCARSGYDYDPIYYALDYWGQGTSVTVSS VL: DIVLTQSPASLAVSLGQRATISCRASESVDNYGISFMNWFQQKPGHPPKLLIYGASNQGSGVPARFSGSGSGTDFSLNIHPMEEDDAAMYFCQQTKEVPWTFGGGTKVEIKR",cell death (ratio of dead cells to total cells),[1],about 39%
same,"antibody reactivity, samples treated with N-glycanase","[2]; lanes 2 and 5, FIG. 4",reduced reactivity
same,"antibody reactivity, samples treated with O-glycanase and sialidase alone or in combination","[2]; lanes 3, 4 and 6, FIG. 4",increased reactivity
same,cell death (ratio of dead cells to total cells),[3],about 55%
same,recognition of MUC16 in different pancreatic cancer cells,[4],recognizes various isoforms of MUC16
same,"antibody reactivity, samples treated with N-glycanase","[5]; lanes 2 and 5, FIGS. 3A and 3B",reduced reactivity
same,"antibody reactivity, samples treated with O-glycanase and sialidase alone or in combination","[5]; lanes 3, 4 and 6, FIGS. 3A and 3B",increased reactivity
same,PDAC patients ascites fluids in which MUC16 isoforms are recognized,[6],37.5%
